Reference: paper PMC6919601, “Identification of Plasmodium dipeptidyl aminopeptidase allosteric inhibitors by high throughput screening” (PLoS ONE, 2019)
In all, about 110,000 compounds went through this assay and about 230 (0.21%) showed an effect of 50% or more. The list shows a part of the results.

Target: DPAP1 (Plasmodium falciparum, UniProt Q8IIJ9)
Test: primary screen, percent inhibition; read by cleavage of a fluorogenic dipeptide substrate; higher = more effect of the substance
Parameters: species or system P. falciparum D10 trophozoite lysates; single well
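Note: 30 min substrate incubation versus DMSO and 10 µM JCP410 controls.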

DPAP1, sequence (Q8IIJ9 whole entry, looked up): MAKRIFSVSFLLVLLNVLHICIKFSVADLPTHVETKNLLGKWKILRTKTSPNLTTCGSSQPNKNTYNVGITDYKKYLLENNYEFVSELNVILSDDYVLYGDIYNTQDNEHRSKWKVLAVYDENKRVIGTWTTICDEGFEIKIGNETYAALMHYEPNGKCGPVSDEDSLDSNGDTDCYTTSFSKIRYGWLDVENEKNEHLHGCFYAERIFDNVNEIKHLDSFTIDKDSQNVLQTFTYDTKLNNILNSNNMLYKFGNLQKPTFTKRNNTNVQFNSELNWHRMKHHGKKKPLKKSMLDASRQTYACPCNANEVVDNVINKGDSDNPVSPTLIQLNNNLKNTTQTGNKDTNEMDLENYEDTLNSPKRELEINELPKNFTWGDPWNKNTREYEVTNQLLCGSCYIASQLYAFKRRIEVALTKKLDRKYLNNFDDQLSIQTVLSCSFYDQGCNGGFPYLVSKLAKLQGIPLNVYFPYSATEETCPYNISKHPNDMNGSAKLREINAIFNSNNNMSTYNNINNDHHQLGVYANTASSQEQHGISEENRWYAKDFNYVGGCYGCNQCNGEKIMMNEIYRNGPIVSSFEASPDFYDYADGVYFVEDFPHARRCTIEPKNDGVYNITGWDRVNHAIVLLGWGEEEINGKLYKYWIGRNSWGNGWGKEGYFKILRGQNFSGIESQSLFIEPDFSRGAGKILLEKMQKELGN

| Structure (SMILES) | % Inhibition @ 10 uM [%] |
| --- | --- |
| FC(F)(F)C1(C(F)(F)F)N=C(c2cccnc2)OC(N2CCCCC2)=N1 | -1.72 |
| N#Cc1c2c(c(NCCN3CCCCC3)n3c1nc1ccccc13)CCC2 | 2.09 |
| CCN(CC)C(=O)/C(=C/c1ccccc1)NC(=O)c1cccc(Br)c1 | -1.07 |
| COc1ccc(-c2cc(C(F)F)n3ncc(C(=O)Nc4cc(C)ccc4OC)c3n2)cc1 | -3.65 |
| CCn1cc(C=C2C(=O)NC(=O)NC2=O)c2ccccc21 | -1.25 |
| CCCN1C(=O)c2[nH]nc(-c3c(C)cc(C)cc3O)c2C1c1cccc(O)c1 (stereo not drawn) | 1.67 |
| Cc1cccc(CCNC(=O)NCc2noc3ccccc23)c1 | 0.857 |
| Cc1cccc(C(=O)Nc2ccc(S(=O)(=O)N3CCCCC3)cc2)c1 | -1.28 |
| CC(CCc1ccccc1)NC(=O)C1CCN(S(=O)(=O)N2CCOCC2)CC1 (stereo not drawn) | -3.12 |
| c1ccc(-c2cn(-c3ccccc3)nc2-c2ccccc2)cc1 | -0.744 |
| CCOc1ccc(N2C(=O)c3ccc([N+](=O)[O-])cc3C2=O)cc1 | -0.268 |
| O=C(Cc1nc2ccccc2[nH]1)N1CCCCC1 | 2.22 |
| CC1CCN(CCCNC(=O)c2coc3nc4ccccc4nc23)CC1 | -0.971 |
| Cc1c2cnn(CC(=O)N3CCN(C4CCCCC4)CC3)c(=O)c2c(C)n1Cc1ccc(F)cc1 | -0.447 |
| Cc1cc(C)c(C(=O)/C=C/c2ccccn2)c(O)n1 | -1.93 |
| CCn1c2ccccc2c2nnc(N3CCN(c4ccccn4)CC3)nc21 | -5.66 |
| CC(C)(C)c1cc(-c2nnc(S)n2-c2ccccc2F)[nH]n1 | 5.5 |
| O=C(Nc1nnc(C23C[C@H]4C[C@@H](C2)C[C@@H](C3)C4)s1)C(=O)c1c[nH]c2ccccc12 | 0.655 |
| O=S(=O)(O)c1cc(-n2nc3c(c2O)CCC3)ccc1Oc1ccccc1 | 4.7 |
| CCCCn1c(CN2C(=O)c3ccccc3C2=O)nc2ccccc2c1=O | -0.992 |
| Cc1c(Cl)cccc1NC(=O)c1cc2nc(C(F)F)cc(C(F)F)n2n1 | -2.85 |
| CCN(CC)CCSc1nc2cc(C)c(C)cc2[nH]1 | -0.267 |
| CCOC(=O)N1CCN(CC[C@@H](C)CCC=C(C)C)CC1 | -3.8 |
| NC(=O)c1ccc(NC(=O)CNS(=O)(=O)c2ccc(Cl)cc2)cc1 | -6.25 |
| O=C(c1nc2nc(-c3ccccc3)cc(C(F)(F)F)n2n1)N1CCOCC1 | 1.04 |
| CN(C)C(=O)N1CCCC(C(=O)NCc2cccs2)C1 (stereo not drawn) | -1.34 |
| CCCOc1ccc(N2C(=O)CC(N3CCCCC3)C2=O)cc1 (stereo not drawn) | -0.996 |
